{"source": "the supplement of paper PMC8728848", "assay_in_all_cases": "glycan array binding signal (z-score within array); higher = stronger binding", "conditions_in_all_cases": "glycan notation: IUPAC condensed, linker removed", "key": {"Gal6S(b1-4)Glc6S": {"target": "Gal6S(b1-4)Glc6S", "method_in_brief": "(§1)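 The binding signal is a Z-score computed within each array. Data were drawn from 3228 arrays in the Consortium for Functional Glycomics database, restricted to those with a known protein sequence. Scores were averaged over arrays of the same protein sequence at different concentrations or buffers, and over linkers, and negative values can be taken as non-binding.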"}, "Gal6S(b1-4)GlcNAc": {"target": "Gal6S(b1-4)GlcNAc", "method_in_brief": "as §1"}, "Gal6S(b1-4)GlcNAc6S": {"target": "Gal6S(b1-4)GlcNAc6S", "method_in_brief": "as §1"}, "GalNAc(a1-3)Gal": {"target": "GalNAc(a1-3)Gal", "method_in_brief": "as §1"}, "GalNAc(a1-3)GalNAc": {"target": "GalNAc(a1-3)GalNAc", "method_in_brief": "as §1"}, "[1]": {"target": "GalNAc(a1-3)GalNAc(b1-3)Gal(a1-4)Gal(b1-4)Glc", "method_in_brief": "as §1"}, "[2]": {"target": "GalNAc(a1-3)GalNAc(b1-3)Gal(a1-4)Gal(b1-4)GlcNAc", "method_in_brief": "as §1"}, "GalNAc(b1-3)Gal": {"target": "GalNAc(b1-3)Gal", "method_in_brief": "as §1"}, "[3]": {"target": "GalNAc(b1-3)Gal(a1-4)Gal(b1-4)GlcNAc", "method_in_brief": "as §1"}, "[4]": {"target": "GalNAc(b1-3)Gal(a1-4)Gal(b1-4)GlcNAc(b1-3)Gal(b1-4)Glc", "method_in_brief": "as §1"}, "[5]": {"target": "GalNAc(b1-3)Gal(a1-6)Gal(b1-4)Glc", "method_in_brief": "as §1"}, "GalNAc(b1-3)GalNAc": {"target": "GalNAc(b1-3)GalNAc", "method_in_brief": "as §1"}, "GalNAc(b1-3)GlcNAc": {"target": "GalNAc(b1-3)GlcNAc", "method_in_brief": "as §1"}, "GalNAc(b1-4)Gal(b1-4)Glc": {"target": "GalNAc(b1-4)Gal(b1-4)Glc", "method_in_brief": "as §1"}, "GalNAc(b1-4)GlcNAc": {"target": "GalNAc(b1-4)GlcNAc", "method_in_brief": "as §1"}, "[6]": {"target": "GalNAc(b1-4)GlcNAc(b1-2)Man", "method_in_brief": "as §1"}, "[7]": {"target": "GalNAc(b1-4)GlcNAc(b1-2)Man(a1-3)[GalNAc(b1-4)GlcNAc(b1-2)Man(a1-6)]Man(b1-4)GlcNAc(b1-4)GlcNAc", "method_in_brief": "as §1"}, "[8]": {"target": "GalNAc(b1-4)GlcNAc(b1-3)GalNAc(b1-4)GlcNAc", "method_in_brief": "as §1"}, "GalNAc(b1-4)GlcNAc6S": {"target": "GalNAc(b1-4)GlcNAc6S", "method_in_brief": "as §1"}, "GalNAc(b1-6)GalNAc": {"target": "GalNAc(b1-6)GalNAc", "method_in_brief": "as §1"}, "GalNAc3S(b1-4)GlcNAc": {"target": "GalNAc3S(b1-4)GlcNAc", "method_in_brief": "as §1"}, "GalNAc3S(b1-4)GlcNAc3S": {"target": "GalNAc3S(b1-4)GlcNAc3S", "method_in_brief": "as §1"}, "[9]": {"target": "GalNAc3S(b1-4)[Fuc(a1-3)]GlcNAc", "method_in_brief": "as §1"}, "GalNAc4S6S(b1-4)GlcNAc": {"target": "GalNAc4S6S(b1-4)GlcNAc", "method_in_brief": "as §1"}, "GalNAc6S(b1-4)GlcNAc": {"target": "GalNAc6S(b1-4)GlcNAc", "method_in_brief": "as §1"}, "Glc(a1-4)Glc": {"target": "Glc(a1-4)Glc", "method_in_brief": "as §1"}, "[10]": {"target": "Glc(a1-4)Glc(a1-4)Glc(a1-4)Glc", "method_in_brief": "as §1"}, "Glc(a1-6)Glc(a1-6)Glc": {"target": "Glc(a1-6)Glc(a1-6)Glc", "method_in_brief": "as §1"}, "[11]": {"target": "Glc(a1-6)Glc(a1-6)Glc(a1-6)Glc", "method_in_brief": "as §1"}, "Glc(b1-4)Glc": {"target": "Glc(b1-4)Glc", "method_in_brief": "as §1"}, "Glc(b1-6)Glc": {"target": "Glc(b1-6)Glc", "method_in_brief": "as §1"}, "GlcA(b1-3)Gal": {"target": "GlcA(b1-3)Gal", "method_in_brief": "as §1"}, "GlcA(b1-3)GlcNAc": {"target": "GlcA(b1-3)GlcNAc", "method_in_brief": "as §1"}, "GlcA(b1-6)Gal": {"target": "GlcA(b1-6)Gal", "method_in_brief": "as §1"}, "[12]": {"target": "GlcA3S(b1-3)Gal(b1-4)GlcNAc(b1-2)Man", "method_in_brief": "as §1"}, "[13]": {"target": "GlcA3S(b1-3)Gal(b1-4)GlcNAc(b1-3)Gal(b1-4)Glc", "method_in_brief": "as §1"}, "[14]": {"target": "GlcNAc(a1-3)Gal(b1-4)GlcNAc", "method_in_brief": "as §1"}}, "note": "This is one part of the list.", "data": [{"binder": "SAOUHSC 00176 (Staphylococcus aureus) (protein) MSKILKCITLAVVMLLIVTACGPNRSKEDIDKALNKDNSKDKPNQLTMWVDGDKQMAFYKKITDQYTKKTGIKVKLVNIGQNDQLENISLDAPAGKGPDIFFLAHDNTGSAYLQGLAAEIKLSKDELKGFNKQALKAMNYDNKQLALPAIVETTALFYNKKLVKNAPQTLEEVEANAAKLTDSKKKQYGMLFDAKNFYFNYPFLFGNDDYIFKKNGSEYDIHQLGLNSKHVVKNAERLQKWYDKGYLPKAATHDVMIGLFKEGKVGQFVTGPWNINEYQETFGKDLGVTTLPTDGGKPMKPFLGVRGWYLSEYSKHKYWAKDLMLYITSKDTLQKYTDEMSEITGRVDVKSSNPNLKVFEKQARHAEPMPNIPEMRQVWEPMGNASIFISNGKNPKQALDEATNDITQNIKILHPSQNDKKGD", "values": [{"measurement": "glycan array binding signal (z-score)", "setting": "Gal6S(b1-4)Glc6S", "value": 0.076}, {"measurement": "glycan array binding signal (z-score)", "setting": "Gal6S(b1-4)GlcNAc", "value": -0.104}, {"measurement": "glycan array binding signal (z-score)", "setting": "Gal6S(b1-4)GlcNAc6S", "value": -0.086}, {"measurement": "glycan array binding signal (z-score)", "setting": "GalNAc(a1-3)Gal", "value": -0.109}, {"measurement": "glycan array binding signal (z-score)", "setting": "GalNAc(a1-3)GalNAc", "value": 0.009}, {"measurement": "glycan array binding signal (z-score)", "setting": "[1]", "value": -0.149}, {"measurement": "glycan array binding signal (z-score)", "setting": "[2]", "value": -0.027}, {"measurement": "glycan array binding signal (z-score)", "setting": "GalNAc(b1-3)Gal", "value": -0.081}, {"measurement": "glycan array binding signal (z-score)", "setting": "[3]", "value": -0.02}, {"measurement": "glycan array binding signal (z-score)", "setting": "[4]", "value": -0.117}, {"measurement": "glycan array binding signal (z-score)", "setting": "[5]", "value": -0.142}, {"measurement": "glycan array binding signal (z-score)", "setting": "GalNAc(b1-3)GalNAc", "value": -0.142}, {"measurement": "glycan array binding signal (z-score)", "setting": "GalNAc(b1-3)GlcNAc", "value": -0.169}, {"measurement": "glycan array binding signal (z-score)", "setting": "GalNAc(b1-4)Gal(b1-4)Glc", "value": 0.067}, {"measurement": "glycan array binding signal (z-score)", "setting": "GalNAc(b1-4)GlcNAc", "value": -0.042}, {"measurement": "glycan array binding signal (z-score)", "setting": "[6]", "value": -0.128}, {"measurement": "glycan array binding signal (z-score)", "setting": "[7]", "value": 0.072}, {"measurement": "glycan array binding signal (z-score)", "setting": "[8]", "value": -0.092}, {"measurement": "glycan array binding signal (z-score)", "setting": "GalNAc(b1-4)GlcNAc6S", "value": -0.057}, {"measurement": "glycan array binding signal (z-score)", "setting": "GalNAc(b1-6)GalNAc", "value": -0.168}, {"measurement": "glycan array binding signal (z-score)", "setting": "GalNAc3S(b1-4)GlcNAc", "value": -0.115}, {"measurement": "glycan array binding signal (z-score)", "setting": "GalNAc3S(b1-4)GlcNAc3S", "value": -0.084}, {"measurement": "glycan array binding signal (z-score)", "setting": "[9]", "value": -0.153}, {"measurement": "glycan array binding signal (z-score)", "setting": "GalNAc4S6S(b1-4)GlcNAc", "value": -0.038}, {"measurement": "glycan array binding signal (z-score)", "setting": "GalNAc6S(b1-4)GlcNAc", "value": -0.104}, {"measurement": "glycan array binding signal (z-score)", "setting": "Glc(a1-4)Glc", "value": 4.5}, {"measurement": "glycan array binding signal (z-score)", "setting": "[10]", "value": 23.6}, {"measurement": "glycan array binding signal (z-score)", "setting": "Glc(a1-6)Glc(a1-6)Glc", "value": -0.136}, {"measurement": "glycan array binding signal (z-score)", "setting": "[11]", "value": 0.003}, {"measurement": "glycan array binding signal (z-score)", "setting": "Glc(b1-4)Glc", "value": -0.094}, {"measurement": "glycan array binding signal (z-score)", "setting": "Glc(b1-6)Glc", "value": -0.037}, {"measurement": "glycan array binding signal (z-score)", "setting": "GlcA(b1-3)Gal", "value": -0.069}, {"measurement": "glycan array binding signal (z-score)", "setting": "GlcA(b1-3)GlcNAc", "value": -0.033}, {"measurement": "glycan array binding signal (z-score)", "setting": "GlcA(b1-6)Gal", "value": -0.08}, {"measurement": "glycan array binding signal (z-score)", "setting": "[12]", "value": -0.143}, {"measurement": "glycan array binding signal (z-score)", "setting": "[13]", "value": -0.093}, {"measurement": "glycan array binding signal (z-score)", "setting": "[14]", "value": -0.156}]}]}
